The supplement of paper PMC12217912
Some of the results follow. The full chains were built here from the parent and the listed change. Values near 0.05 are background.

B1: TEV protease; numbered along this chain (parent)
chain: MGESLFKGPRDYNPISSSICHLTNESDGHTTSLYGIGFGPFIITNKHLFRRNNGTLVVQSLHGVFKVKDTTTLQQHLVDGRDMIIIRMPKDFPPFPQKLKFREPQREERICLVTTNFQTKSMSSMVSDTSCTFPSGDGIFWKHWIQTKDGQCGSPLVSTRDGFIVGIHSASNFTNTNNYFTSVPKNFMELLTNQEAQQWVSGWRLNADSVLWGGHKVFMVKPEEPFQPVKEATQL

Variants of: B1
Experiment: raw area under fraction-flipped curve 0-4 h after induction (AUC4h, not background-subtracted), DNA-recorder readout of cleavage of the substrate (dimensionless); higher = more cleavage of the substrate by the protease variant
Conditions: temperature: 34 °C; time window: 0-4 h after rhamnose induction
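Further: Bxb1 expression induced with 0.2% (w/v) L-rhamnose at OD600 near 0.5, cultures sampled hourly, flipped fraction per protease–substrate barcode pair counted by paired-end Illumina sequencing.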

Variant | area with substrate ENLYFQG | area with substrate ENLYFQR | area with substrate ENLYFQS | area with substrate ENLYFQH | area with substrate ENLYFQK | area with substrate ENLYFQL | area with substrate ENLYFQM | area with substrate ENLYFQN | area with substrate ENLYFQT | area with substrate ENLYFQV
MGESLFKGPRDYNPISSSICHLTNESDGHTTSLYGIGFGPFIITNKHLFRRNNGTLVVQSNHGVFKVKDTTTLQQHLVDGRDMIIIRMPKDFPPFPQKLKFREPQREERICLVTTNFQTKSMSSMVSDTSCTFPSGDGIFWKHWIQTKDGQCGSPLVSTRDGFIVGIHSASNFTNTNNYFTSVPKNFMELLTNQEAQQWVSGWRLNADSVLWGGHKVFMVKPEEPFQPVKEATQL [L61N] | 0.0917 | 0.0742 | 0.1 | – | – | – | – | – | – | –
MGESLFKGPRDYNPISSSICHLTNESDGHTTSLYGIGFGPFIITNKHLFRRNNGTLVVQSLHGVFKVKDTTTLQQHLVDGRDMIIIRMPKDFPPFPQKLKFREPQREERICLVTTNFQTKSMSSMVSDTSCTFPSGDGIFWKHWIQTKDGQCGSPLVSTRDGFIVGIHSASNFTNTNNYFTSVPKNFCELLTNQEAQQWVSGWRLNADSVLWGGHKVFMVKPEEPFQPVKEATQL [M188C] | 0.0858 | 0.0606 | 0.106 | 0.0503 | 0.0478 | 0.0538 | 0.0717 | 0.0847 | 0.0317 | 0.0675
MGESLFKGPRDYNPISSSICHLTNESDGHTTSLYGIGFGPFIITNKHLFRRNNGTLVVQSLHGVFKVKDTTTLQQHLVDGRDMIIIRMPKDFPPFPQKLKFREPQREERICLVTTNFQTKSMSSMVSDTSCTFPSGDGIFWKHWIQTKDGQCGSPLVSTRDGFIVGIHSASNFTNTNNYFTSVPKNFMELLTNQEAQQWVSGWRLNADSVLWGVHKVFMVKPEEPFQPVKEATQL [G214V] | – | 0.0558 | 0.0813 | – | 0.0779 | – | 0.0667 | 0.0404 | – | 0.0614
MGESLFKGPRDYNPISSSICHLTNESDGHTTSLYGIGFGPFIITNKHLFRRNNGTLVVQSLHGVFKVKDTTTLQQHLVDGRDMIIIRMPKDFPPFPQKLKFREPQREERICLVTTNFQTKSMSSMVSDTSCTFPSGDGIFWKHWIQTKDGQCGSPLVSTRDGFIVGIHSASNFTNTNNYFTSVPKNFMELLTNQEAQQWVSGWRLNADSVLWGGHKVFLVKPEEPFQPVKEATQL [M219L] | – | – | 0.0943 | – | – | – | 0.0803 | – | 0.0638 | –
MGESLFKGPRDYNPISSSICHLTNESDGHTTSLYGIGFGPFIITNKHLFRRNNGTLVVQSLHGVFKVKDTTTLQQHLVDGRDMIIIRMPKDFPPFPQKLKFREPQREERICLVTTNFQTLSMSSMVSDTSCTFPSGDGIFWKHWIQTKDGQCGSPLVSTRDGFIVGIHSASNFTNTNNYFTSVPKNFMELLTNQEAQQWVSGWRLNADSVLWGGHKVFMVKPEEPFQPVKEATQL [K120L] | – | 0.0613 | 0.096 | 0.0707 | 0.0647 | – | – | 0.0784 | 0.0599 | 0.0608
MGESLFKGPRDYNPISSSICHLTNESDGHTTSLYGIGFGPFIITNKHLFRRNNGTLVVQSLHGVFKVKDTTTLQQHLVDGRDMIIIRMPKDFPPFPQKLKFREPQREERICLVTTNFQTKSMSSLVSDTSCTFPSGDGIFWKHWIQTKDGQCGSPLVSTRDGFIVGIHSASNFTNTNNYFTSVPKNFMELLTNQEAQQWVSGWRLNADSVLWGGHKVFMVKPEEPFQPVKEATQL [M125L] | 0.0952 | 0.0524 | 0.11 | 0.0938 | 0.059 | – | 0.0823 | 0.0628 | 0.0676 | –
MGESLFKGPRDYNPISSSICHLTNESDGHTTSLYGIGFGPFIITNKHLFRRNNGTLVVQSLHGVFKVKDTTTLQQHLVDGRDMIIIRMPKDFPPFPQKLKFREPQREERICLVTTNFQTKSMSSMVSDTSCTFPSGDGIFWKHWIQTKDGQCGSPLVSTRDGFIVGIHSASNFTNTNNYFTSVPKNFMELLYNQEAQQWVSGWRLNADSVLWGGHKVFMVKPEEPFQPVKEATQL [T192Y] | – | 0.0581 | 0.102 | – | – | – | – | – | 0.0864 | 0.0499
MGESLFKGPRDYNPISSSICHLTNESDGHTTSLYGIGFGPFIITNKHLFRRNNGTLVVQSLHGVFKVKDTTTLQQHLVDGRDMIIIRMPKDFPPFPQKLKFREPQREERICLVTTNFQTKSMSSMVSDTSCTFPSGDGIFWKHWIQTKDGQCGSPLVSTRDGFIVGIHSASNFTNTNNYFTSVPKNFMELLTNQEAQQWVSGRRLNADSVLWGGHKVFMVKPEEPFQPVKEATQL [W203R] | 0.0496 | – | 0.066 | – | 0.0623 | – | 0.0609 | 0.0492 | 0.063 | –

Same assay, conditions: temperature: 34 °C; time window: 0-4 h after rhamnose induction

Variant | area with substrate ENLYFQW | area with substrate ENLYFQY | area with substrate ENLYFQI | area with substrate ENLYFQP | area with substrate ENLYFQF
MGESLFKGPRDYNPISSSICHLTNESDGHTTSLYGIGFGPFIITNKHLFRRNNGTLVVQSLHGVFKVKDTTTLQQHLVDGRDMIIIRMPKDFPPFPQKLKFREPQREERICLVTTNFQTKSMSSMVSDTSCTFPSGDGIFWKHWIQTKDGQCGSPLVSTRDGFIVGIHSASNFTNTNNYFTSVPKNFCELLTNQEAQQWVSGWRLNADSVLWGGHKVFMVKPEEPFQPVKEATQL [M188C] | 0.0673 | 0.0894 | – | – | –
MGESLFKGPRDYNPISSSICHLTNESDGHTTSLYGIGFGPFIITNKHLFRRNNGTLVVQSLHGVFKVKDTTTLQQHLVDGRDMIIIRMPKDFPPFPQKLKFREPQREERICLVTTNFQTKSMSSMVSDTSCTFPSGDGIFWKHWIQTKDGQCGSPLVSTRDGFIVGIHSASNFTNTNNYFTSVPKNFMELLTNQEAQQWVSGWRLNADSVLWGVHKVFMVKPEEPFQPVKEATQL [G214V] | – | – | 0.0522 | – | –
MGESLFKGPRDYNPISSSICHLTNESDGHTTSLYGIGFGPFIITNKHLFRRNNGTLVVQSLHGVFKVKDTTTLQQHLVDGRDMIIIRMPKDFPPFPQKLKFREPQREERICLVTTNFQTKSMSSMVSDTSCTFPSGDGIFWKHWIQTKDGQCGSPLVSTRDGFIVGIHSASNFTNTNNYFTSVPKNFMELLTNQEAQQWVSGWRLNADSVLWGGHKVFLVKPEEPFQPVKEATQL [M219L] | – | – | 0.0569 | – | –
MGESLFKGPRDYNPISSSICHLTNESDGHTTSLYGIGFGPFIITNKHLFRRNNGTLVVQSLHGVFKVKDTTTLQQHLVDGRDMIIIRMPKDFPPFPQKLKFREPQREERICLVTTNFQTLSMSSMVSDTSCTFPSGDGIFWKHWIQTKDGQCGSPLVSTRDGFIVGIHSASNFTNTNNYFTSVPKNFMELLTNQEAQQWVSGWRLNADSVLWGGHKVFMVKPEEPFQPVKEATQL [K120L] | 0.0686 | – | 0.0615 | 0.0376 | –
MGESLFKGPRDYNPISSSICHLTNESDGHTTSLYGIGFGPFIITNKHLFRRNNGTLVVQSLHGVFKVKDTTTLQQHLVDGRDMIIIRMPKDFPPFPQKLKFREPQREERICLVTTNFQTKSMSSLVSDTSCTFPSGDGIFWKHWIQTKDGQCGSPLVSTRDGFIVGIHSASNFTNTNNYFTSVPKNFMELLTNQEAQQWVSGWRLNADSVLWGGHKVFMVKPEEPFQPVKEATQL [M125L] | 0.0521 | 0.0659 | 0.0626 | 0.0614 | –
MGESLFKGPRDYNPISSSICHLTNESDGHTTSLYGIGFGPFIITNKHLFRRNNGTLVVQSLHGVFKVKDTTTLQQHLVDGRDMIIIRMPKDFPPFPQKLKFREPQREERICLVTTNFQTKSMSSMVSDTSCTFPSGDGIFWKHWIQTKDGQCGSPLVSTRDGFIVGIHSASNFTNTNNYFTSVPKNFMELLYNQEAQQWVSGWRLNADSVLWGGHKVFMVKPEEPFQPVKEATQL [T192Y] | – | – | – | – | 0.0935
MGESLFKGPRDYNPISSSICHLTNESDGHTTSLYGIGFGPFIITNKHLFRRNNGTLVVQSLHGVFKVKDTTTLQQHLVDGRDMIIIRMPKDFPPFPQKLKFREPQREERICLVTTNFQTKSMSSMVSDTSCTFPSGDGIFWKHWIQTKDGQCGSPLVSTRDGFIVGIHSASNFTNTNNYFTSVPKNFMELLTNQEAQQWVSGRRLNADSVLWGGHKVFMVKPEEPFQPVKEATQL [W203R] | 0.0532 | 0.0618 | 0.0852 | – | 0.0648
